Assay results taken from article PMC12136788.
Some of the results follow.

B1: chr12:100625254:100625355:+|3pUTR|ENSG00000139354|unk|FALSE|unique (ssRNA)
RNA: GGGAGUUCUACAGUCCGACGAUCAUAUGUAUUAAAUAUGGAGUUCAUAUACCUGCUAAUAUCAACGGUGGUGCUCUUACUAUUAGUUAAUUGCAUUUUGGUUAAAAAAAAAAAAGCAACAGUUUGGCACUUGUCCUACAAAAGCAACAGAGGAUUGAGCAUCA
B2: chr11:134247321:134247422:+|3pUTR|ENSG00000151502|unk|total|mutant (ssRNA)
RNA: GGGAGUUCUACAGUCCGACGAUCCCUUUUCAGAGCAUGAGGUCAGGCUCUGUAUCCCUCCUUUUCCCCGCUGAUAUUCUAACCCGAAGCAUUUGUCAAUUCCUUUGCCUCCCAACUGACAACACACGUUCAUUUUCCAACCUUCAACAGAGGAUUGAGCAUCA
B3: chr21:43695798:43695899:+|3pUTR|ENSG00000160208|msi1|FALSE|unique (ssRNA)
RNA: GGGAGUUCUACAGUCCGACGAUCACAAUAUUUUGUAAAAUGAUGCUUCCCCCUUCUCCAUGGUCUAGUCAAUUUUGUACAAUUAGGUAUCUGACUUUACAAGUUUGUUAUCCUUUCUAAUUUUUACUGAACUGAAAGCACAAACAACAGAGGAUUGAGCAUCA
B4: chr10:110887682:110887783:+|CDS|ENSG00000150593|msi1|total|mutant (ssRNA)
RNA: GGGAGUUCUACAGUCCGACGAUCGUUAAGAGAUUUAAAUCUUGGUGAAAUGAAAAGUGGAGUACCAGUGUUGGCAGUAUCCUCCGCAUUGGAGGGGAAGGCCCGUCACCGAGAGAUGACAUCUAAGCUUCUUUCUGACCUUUGCAACAGAGGAUUGAGCAUCA
B5: chr5:95604386:95604487:+|3pUTR|ENSG00000164291|msi1|FALSE|unique (ssRNA)
RNA: GGGAGUUCUACAGUCCGACGAUCCCUGCCAUCCAGUUCCCCCUCCAAGAAGCAAGUACCGAAACCACCUGCUUACGCAUUUUUAGAGAUUGGCCACAAAUUUAUAAACAAAUGUAUAUAUUCCUUUCCCCCUACACAAACGGUCAACAGAGGAUUGAGCAUCA
B6: chr6:21593967:21594078:+|5pUTR|ENSG00000124766|unk|total|mutant (ssRNA)
RNA: GGGAGUUCUACAGUCCGACGAUCUCCGUGCCGAUUCCGCCCACAGAGAGUCCUGGAGCCACAGUCUUUUUUGCUUUGCAUUGCCGGAGAGGGACUAAGUGCCCGAGACUAUGUCGCUUUCCUGAGCUACCGAGAGCGCUCGUGCAACAGAGGAUUGAGCAUCA
B7: chr13:110149936:110150037:-|3pUTR|ENSG00000187498|msi1|FALSE|unique (ssRNA)
RNA: GGGAGUUCUACAGUCCGACGAUCUUCUUGUAUUAUAAUUAAUUUUCUACCCCCAGAGAUAAAUGUUUGUUUAUAUCACUGUCUAGCUGUUUCAAAAUUUAGGUCCCUUGGUCUGUACAAAUAAUAGCAAUGUAAAAAUGGUUUCAACAGAGGAUUGAGCAUCA
B8: chr15:73714018:73714119:+|3pUTR|ENSG00000103855|msi1|FALSE|unique (ssRNA)
RNA: GGGAGUUCUACAGUCCGACGAUCCCCACCCAUAAUUCUUACCCAGAGCAUGGGGUUGGGGCGGAAACCUGGAGAGAGGGACAUAGCCCCUCGCCACGGCUAGAGAAUCUGGUGGUGUCCAAAAUGUCUGUCCAGGUGUGGGCACAACAGAGGAUUGAGCAUCA
B9: chr1:208022241:208027242:-|three_prime_utr|ENSG00000076356|control|control|control (ssRNA)
RNA: GGGAGUUCUACAGUCCGACGAUCGAGACCCCAUCCUGGGGAGAGGGGAGGACUCCUCUCCCUACGCCAGCCAAGUUUCGUCAUAGCCAGUUCCAGCUGGGAGAGACAGUGGGCGUCGUCCAUCCUCAGUGAGAACACCAGAGACAACAGAGGAUUGAGCAUCA
B10: ENSG00000198589:be:win_7701|CDS|ENSG00000198589|bound_else_gene|NA|bound_elsewhere_windowed (ssRNA)
RNA: GGGAGUUCUACAGUCCGACGAUCUACAGGAAUGCACAGGAGGCAAAUCACUGACCUUUUAGACCAAAGUAUUCAAGUGCAUUCCCAGUGCUUUGUCAUCACUUCAGACAACCGCUAUAUUCUCGUCUGUGGCUUCUGGGAUAACAACAGAGGAUUGAGCAUCA
B11: chr12:12643182:12643283:+|3pUTR|ENSG00000111269|unk|FALSE|unique (ssRNA)
RNA: GGGAGUUCUACAGUCCGACGAUCCUGGAGUUGUGCACAGCACCGCAGCUAGUGGGCCUGGCUGGGGGUGCAGAAGGGCAGGGUAGUUCUUUCCAUUUCCCCUUGCAGCUACACUUACUUUCUCCCUGACUACCAAAUGGAGUGCAACAGAGGAUUGAGCAUCA
B12: chr19:43785873:43786072:-|three_prime_utr|ENSG00000159871|control|control|control (ssRNA)
RNA: GGGAGUUCUACAGUCCGACGAUCGAAAUGAAGAAAAAAGGAGAAAGGAGAAAAGCAUGCACUUGGAGACUAAGACCAGGAGAUAGAAACAGAGAAGCAAGACAAGGCGCAGUGGCUCACACUUGUAAUUCCAGCACCUUAGGACAACAGAGGAUUGAGCAUCA
B13: chr1:203167810:203168091:-|three_prime_utr|ENSG00000133055|control|control|control (ssRNA)
RNA: GGGAGUUCUACAGUCCGACGAUCGGGCCAGGUCCACCAGGCCUACAGUCAAACUCCAGAGAUGCCCAAGACCCCCGCUUCCAUAGCGACGGCUGAUGGAACCGCCCCUGGUACCUGCUGGCCUCCCUUCCCCAGAGGCUGGUGCAACAGAGGAUUGAGCAUCA
B14: ENSG00000170743:stop:overlap|stop_codon|ENSG00000170743|stop_codon|NA|stop_codon (ssRNA)
RNA: GGGAGUUCUACAGUCCGACGAUCAUUUCCCCAGGGAGUGCAUCCUUUGGAAGGAUAUCGAAUAUGUCACCAAUAUUCUUAGCUAGCCCCUAAGAGACAGCAGGUGUUAUCUGUCCUCCGUACCACAUUUUCUUUAGAGCUUUUCAACAGAGGAUUGAGCAUCA
B15: chr7:107202531:107202632:-|3pUTR|ENSG00000164597|msi1|total|mutant (ssRNA)
RNA: GGGAGUUCUACAGUCCGACGAUCUAUUCUGAGAACUCAUAAAUAAAAUUCAGCCAAGAUUAAUCAAUCAAUCAAUCAAUCAGCCGACGUCAGAGAUAAGCAACUUUUUUUUCCAUUUAUUUGAAAUAAUAUACAAGAAUACCGCAACAGAGGAUUGAGCAUCA
B16: chr22:41117408:41117517:+|CDS|ENSG00000100393|unk|total|mutant (ssRNA)
RNA: GGGAGUUCUACAGUCCGACGAUCCCAGGUCAAGUCAUGGCCAGCCAGGCCCAACAGAGCAGUCCUGGAUCCGGUUUGAUAAACCGCAUGGUCAAAAGCCCAAUGACACAGGCAGGCUUGACUUCUCCCAACAUGGGGAUGGGCCAACAGAGGAUUGAGCAUCA
B17: chr1:108699644:108699745:+|CDS|ENSG00000134186|unk|total|mutant (ssRNA)
RNA: GGGAGUUCUACAGUCCGACGAUCGAUUCCAAGAAAGAGAAAAAACACAGCCGAAGCAGAAGCAGAGAAAGGAAACACAGAAGCCGGAGUCGAAGCCGAAAUGCAGGGAAACGAAGCCGAAGCCGAAGCAAAGAGAAAUCAAGUCAACAGAGGAUUGAGCAUCA
B18: chr2:150470103:150470218:-|CDS|ENSG00000115963|unk|total|mutant (ssRNA)
RNA: GGGAGUUCUACAGUCCGACGAUCAUGGCCAAACAGAUUGGAGCAGCUACUUAUAUCGAAUGCUCAGCUUUACAGUCGGAAAACCGCGUCAGAGACAUUUUUCACGUUGCCACCUUGGCAUGUGUAAAUAAGACAAAUAAAAACCAACAGAGGAUUGAGCAUCA
B19: chr6:83525322:83525423:+|3pUTR|ENSG00000146250|msi1|FALSE|unique (ssRNA)
RNA: GGGAGUUCUACAGUCCGACGAUCACAAUUACAAUGUGUAUUAUUUAAAAAUGGGAGAAAUAGUUUGUUCUAUGAAAUAAACCUAGUUUAGAAAUAGGGAAGCUGAGACAUUUUAAGAUCUCAAGUUUUUAUUUAACUAAUACUCAACAGAGGAUUGAGCAUCA
B20: chr19:10690846:10690947:+|3pUTR|ENSG00000129351|msi1|total|mutant (ssRNA)
RNA: GGGAGUUCUACAGUCCGACGAUCGAAAGAGGUGAAAGAACAAGUUGUGUGCCCGAAAACUUUUGAGGAAUUCUUAUUUGUGUCCGAGCAGAGGAGGUCCCAGAUACCAAGUGGCGCCUCCCAGGAAAGGCUGGGAGAAGAGGUCAACAGAGGAUUGAGCAUCA
B21: chr5:52955293:52955406:+|3pUTR|ENSG00000213949|unk|FALSE|unique (ssRNA)
RNA: GGGAGUUCUACAGUCCGACGAUCUACCAACCAGUGUGAGCUGACUUCAGCACACCACUGAGACAGAUUACACGAUAGACAGAUAGAUAGAUAGAUAGAUAGAUAGAUAGAUAGAUAGAUAGAUAGAUAUUGAUAGAGAACAUGCAACAGAGGAUUGAGCAUCA
B22: chr4:1716041:1716142:-|3pUTR|ENSG00000168936|msi1|total|mutant (ssRNA)
RNA: GGGAGUUCUACAGUCCGACGAUCAGGCUUCCCCGAGCGCUCAGCAGGUGAAGGCAGCAGGGGCCAUGGCCGGGAGCCAGGCCCCGCUUUGAACUGAGUUUCAAGGGCUGCCAAAGAGGGGCAGUGGGUUGGGGUUGUUUUUACCAACAGAGGAUUGAGCAUCA

Biological target: MSI1 full-length (mouse, UniProt Q61474 1-362)
Assay: nsRBNS (natural sequence RNA bind-n-seq); RBNS binding buffer (assumed for nsRBNS): 25 mM Tris pH 7.5, 150 mM KCl, 3 mM MgCl2, 0.01% Triton X-100, 500 ug/ml BSA, 20 U/ml SUPERase-In, 4 C; UNK is unkempt and MSI1 is Musashi-1; names of the RNAs are library labels; protein concentration not given here; high values mean tight binding

Chain of UniProt Q61474 (Q61474 whole entry): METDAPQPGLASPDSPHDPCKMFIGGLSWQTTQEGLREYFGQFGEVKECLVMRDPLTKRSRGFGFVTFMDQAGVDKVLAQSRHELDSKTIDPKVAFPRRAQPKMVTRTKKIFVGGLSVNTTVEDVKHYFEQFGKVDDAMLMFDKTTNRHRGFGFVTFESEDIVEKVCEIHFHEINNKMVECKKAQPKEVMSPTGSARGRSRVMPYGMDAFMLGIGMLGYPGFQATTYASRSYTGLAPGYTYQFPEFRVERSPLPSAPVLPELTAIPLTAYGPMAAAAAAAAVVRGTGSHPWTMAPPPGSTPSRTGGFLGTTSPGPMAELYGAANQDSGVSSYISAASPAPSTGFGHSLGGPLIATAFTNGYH

Binder | binding signal
B1 | 4.95 enrichment R
B2 | 0.592 enrichment R
B3 | 1.05 enrichment R
B4 | 0.349 enrichment R
B5 | 1.53 enrichment R
B6 | 0.447 enrichment R
B7 | 30.3 enrichment R
B8 | 0.347 enrichment R
B9 | 0.394 enrichment R
B10 | 0.497 enrichment R
B11 | 0.688 enrichment R
B12 | 1.22 enrichment R
B13 | 0.439 enrichment R
B14 | 0.336 enrichment R
B15 | 2.15 enrichment R
B16 | 0.388 enrichment R
B17 | 0.486 enrichment R
B18 | 0.309 enrichment R
B19 | 8.55 enrichment R
B20 | 0.428 enrichment R
B21 | 67 enrichment R
B22 | 0.406 enrichment R
